# Experimental data as given in the supplement of paper PMC8728848.
# The other results are listed elsewhere or left out.
# B1: Nc3LysM (protein)
# chain: QFTVPPDTTAEPNTIKTCTWWHVAGSGDSCTSIASTYGITSEQFARWDMETTDSPKNPSVATACKLTVGNSYCIENNFGQDDPPTPSISSSTLIGTATTSTTASTTTGNGISTPTPIQEGMETATTTTSSGNGITTPTPTQAGMETVGNCDRFHLVKSGDQCGTIASTYGITLANFYSWNPAVGTSCQSLWLDTYVCVRTIGFVPPKTTTTTTKKPTSTTSAGGVATPTPTQPGMETVSGCKKFHKGRGNVSTVASGDQCGTIATRYGISLANFYSWNPAVGSSCQTLWLDYYVCVGR
# Assays:
# Test in all cases: glycan array binding signal (z-score within array); higher = stronger binding
# Conditions in all cases: glycan notation: IUPAC condensed, linker removed
# [1] = molecular target: Neu5Ac(a2-3)Gal(b1-4)GlcNAc(b1-3)Gal(b1-4)GlcNAc(b1-3)Gal(b1-4)GlcNAc
# In short: (§1)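 Arrays were curated from the Consortium for Functional Glycomics database, 3228 in total, and kept only where the protein sequence was available. Binding is expressed as a within-array Z-score. This score was averaged across arrays of the same protein sequence at different concentrations or buffers and across linkers, and negative values can be read as non-binding.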
# [2] = molecular target: Neu5Ac(a2-3)Gal(b1-4)GlcNAc(b1-3)Gal(b1-4)GlcNAc(b1-3)Gal(b1-4)GlcNAc(b1-2)Man(a1-3)[Neu5Ac(a2-3)Gal(b1-4)GlcNAc(b1-3)Gal(b1-4)GlcNAc(b1-3)Gal(b1-4)GlcNAc(b1-2)Man(a1-6)]GalNAc
# In short: as §1
# [3] = molecular target: Neu5Ac(a2-3)Gal(b1-4)GlcNAc(b1-3)Gal(b1-4)GlcNAc(b1-3)GalNAc
# In short: as §1
# [4] = molecular target: Neu5Ac(a2-3)Gal(b1-4)GlcNAc(b1-3)Gal(b1-4)GlcNAc(b1-3)[Neu5Ac(a2-3)Gal(b1-4)GlcNAc(b1-3)Gal(b1-4)GlcNAc(b1-6)]GalNAc
# In short: as §1
# [5] = molecular target: Neu5Ac(a2-3)Gal(b1-4)GlcNAc(b1-3)Gal(b1-4)GlcNAc(b1-6)[Gal(b1-3)]GalNAc
# In short: as §1
# [6] = molecular target: Neu5Ac(a2-3)Gal(b1-4)GlcNAc(b1-3)Gal(b1-4)[Fuc(a1-3)]GlcNAc
# In short: as §1
# [7] = molecular target: Neu5Ac(a2-3)Gal(b1-4)GlcNAc(b1-3)GalNAc
# In short: as §1
# [8] = molecular target: Neu5Ac(a2-3)Gal(b1-4)GlcNAc(b1-3)[Neu5Ac(a2-3)Gal(b1-4)GlcNAc(b1-6)]GalNAc
# In short: as §1
# [9] = molecular target: Neu5Ac(a2-3)Gal(b1-4)GlcNAc(b1-6)GalNAc
# In short: as §1
# [10] = molecular target: Neu5Ac(a2-3)Gal(b1-4)GlcNAc(b1-6)[Gal(b1-3)]GalNAc
# In short: as §1
# [11] = molecular target: Neu5Ac(a2-3)Gal(b1-4)GlcNAc(b1-6)[Neu5Ac(a2-3)Gal(b1-3)]GalNAc
# In short: as §1
# [12] = molecular target: Neu5Ac(a2-3)Gal(b1-4)GlcNAc6S
# In short: as §1
# [13] = molecular target: Neu5Ac(a2-3)Gal(b1-4)[Fuc(a1-3)]GlcNAc
# In short: as §1
# [14] = molecular target: Neu5Ac(a2-3)Gal(b1-4)[Fuc(a1-3)]GlcNAc(b1-2)Man
# In short: as §1
# [15] = molecular target: Neu5Ac(a2-3)Gal(b1-4)[Fuc(a1-3)]GlcNAc(b1-3)Gal
# In short: as §1
# [16] = molecular target: Neu5Ac(a2-3)Gal(b1-4)[Fuc(a1-3)]GlcNAc(b1-3)Gal(b1-4)GlcNAc
# In short: as §1
# [17] = molecular target: Neu5Ac(a2-3)Gal(b1-4)[Fuc(a1-3)]GlcNAc(b1-3)Gal(b1-4)[Fuc(a1-3)]GlcNAc(b1-3)Gal(b1-4)[Fuc(a1-3)]GlcNAc
# In short: as §1
# [18] = molecular target: Neu5Ac(a2-3)Gal(b1-4)[Fuc(a1-3)]GlcNAc(b1-3)GalNAc
# In short: as §1
# [19] = molecular target: Neu5Ac(a2-3)Gal(b1-4)[Fuc(a1-3)]GlcNAc(b1-6)[Gal(b1-3)]GalNAc
# In short: as §1
# [20] = molecular target: Neu5Ac(a2-3)Gal(b1-4)[Fuc(a1-3)]GlcNAc(b1-6)[Neu5Ac(a2-3)Gal(b1-3)]GalNAc
# In short: as §1
# [21] = molecular target: Neu5Ac(a2-3)Gal(b1-4)[Fuc(a1-3)]GlcNAc6S
# In short: as §1
# [22] = molecular target: Neu5Ac(a2-3)Gal6S(b1-4)GlcNAc
# In short: as §1
# [23] = molecular target: Neu5Ac(a2-3)Gal6S(b1-4)[Fuc(a1-3)]GlcNAc
# In short: as §1
# Neu5Ac(a2-3)GalNAc = molecular target: Neu5Ac(a2-3)GalNAc
# In short: as §1
# [24] = molecular target: Neu5Ac(a2-3)GalNAc(b1-4)GlcNAc
# In short: as §1
# [25] = molecular target: Neu5Ac(a2-3)[GalNAc(b1-4)]Gal(b1-4)Glc
# In short: as §1
# [26] = molecular target: Neu5Ac(a2-3)[GalNAc(b1-4)]Gal(b1-4)GlcNAc
# In short: as §1
# [27] = molecular target: Neu5Ac(a2-3)[GalNAc(b1-4)]Gal(b1-4)GlcNAc(b1-3)GalNAc
# In short: as §1
# [28] = molecular target: Neu5Ac(a2-3)[Neu5Ac(a2-6)]GalNAc
# In short: as §1
# Neu5Ac(a2-6)Gal = molecular target: Neu5Ac(a2-6)Gal
# In short: as §1
# [29] = molecular target: Neu5Ac(a2-6)Gal(b1-3)GlcNAc(b1-3)[Gal(b1-4)GlcNAc(b1-6)]Gal(b1-4)Glc
# In short: as §1
# Neu5Ac(a2-6)Gal(b1-4)Glc = molecular target: Neu5Ac(a2-6)Gal(b1-4)Glc
# In short: as §1
# [30] = molecular target: Neu5Ac(a2-6)Gal(b1-4)GlcNAc
# In short: as §1
# [31] = molecular target: Neu5Ac(a2-6)Gal(b1-4)GlcNAc(b1-2)Man
# In short: as §1
# [32] = molecular target: Neu5Ac(a2-6)Gal(b1-4)GlcNAc(b1-2)Man(a1-3)Man(b1-4)GlcNAc(b1-4)GlcNAc
# In short: as §1
# [33] = molecular target: Neu5Ac(a2-6)Gal(b1-4)GlcNAc(b1-2)Man(a1-3)[Gal(b1-4)GlcNAc(b1-2)Man(a1-6)]Man(b1-4)GlcNAc(b1-4)GlcNAc
# In short: as §1
# [34] = molecular target: Neu5Ac(a2-6)Gal(b1-4)GlcNAc(b1-2)Man(a1-3)[GlcNAc(b1-2)Man(a1-6)]Man(b1-4)GlcNAc(b1-4)GlcNAc
# In short: as §1
# [35] = molecular target: Neu5Ac(a2-6)Gal(b1-4)GlcNAc(b1-2)Man(a1-3)[GlcNAc(b1-4)][Neu5Ac(a2-6)Gal(b1-4)GlcNAc(b1-2)Man(a1-6)]Man(b1-4)GlcNAc(b1-4)GlcNAc
# In short: as §1
binder,measurement,setting,value
B1,glycan array binding signal (z-score),[1],0.039
same,glycan array binding signal (z-score),[2],-0.068
same,glycan array binding signal (z-score),[3],0.172
same,glycan array binding signal (z-score),[4],0.016
same,glycan array binding signal (z-score),[5],-0.051
same,glycan array binding signal (z-score),[6],-0.097
same,glycan array binding signal (z-score),[7],0.083
same,glycan array binding signal (z-score),[8],-0.004
same,glycan array binding signal (z-score),[9],-0.054
same,glycan array binding signal (z-score),[10],-0.075
same,glycan array binding signal (z-score),[11],-0.11
same,glycan array binding signal (z-score),[12],-0.167
same,glycan array binding signal (z-score),[13],0.098
same,glycan array binding signal (z-score),[14],0.007
same,glycan array binding signal (z-score),[15],-0.271
same,glycan array binding signal (z-score),[16],0.009
same,glycan array binding signal (z-score),[17],-0.141
same,glycan array binding signal (z-score),[18],-0.069
same,glycan array binding signal (z-score),[19],-0.127
same,glycan array binding signal (z-score),[20],-0.017
same,glycan array binding signal (z-score),[21],-0.008
same,glycan array binding signal (z-score),[22],-0.239
same,glycan array binding signal (z-score),[23],0.067
same,glycan array binding signal (z-score),Neu5Ac(a2-3)GalNAc,-0.188
same,glycan array binding signal (z-score),[24],-0.077
same,glycan array binding signal (z-score),[25],-0.173
same,glycan array binding signal (z-score),[26],-0.172
same,glycan array binding signal (z-score),[27],-0.016
same,glycan array binding signal (z-score),[28],0.027
same,glycan array binding signal (z-score),Neu5Ac(a2-6)Gal,-0.204
same,glycan array binding signal (z-score),[29],-0.162
same,glycan array binding signal (z-score),Neu5Ac(a2-6)Gal(b1-4)Glc,-0.101
same,glycan array binding signal (z-score),[30],-0.121
same,glycan array binding signal (z-score),[31],-0.043
same,glycan array binding signal (z-score),[32],0.14
same,glycan array binding signal (z-score),[33],-0.063
same,glycan array binding signal (z-score),[34],-0.106
same,glycan array binding signal (z-score),[35],0.021
